PubChem BioAssay AID1460 (National Center for Advancing Translational Sciences (NCATS), 2008)
Out of some 270,000 compounds screened, about 5,800 (2.1%) were called active. This list was built around the results that the source calls inconclusive (neither active nor inactive); the mix of calls is not that of the screen. The call rests on the fitted dose curve; in most records, active means well fitted inhibition curve with a large enough effect; inconclusive means small, poorly fitted or top-dose-only effect; inactive means flat fitted curve, though single readings scatter. Potencies beside an inconclusive call are fits to weak or partial responses and may not hold up.

The compounds below were run against Microtubule-associated protein tau (Homo sapiens) (UniProt P10636) (assay: qHTS for Inhibitors of Tau Fibril Formation, Thioflavin T Binding). Settings: recombinant tau K18 P301L, heparin-induced fibrillization, ThT fluorescence; series mostly up to 57.4 µM.
Outline: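 Using a mix of unlabeled (15 uM) and Alexa 594-labeled (0.24 uM) tau K18 P301L, heparin-triggered fibrillization over 6 hr at 37 C was scored by ThT fluorescence.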
Further: nearly all actives have a fitted effect of over 55% in size.
Potency means the concentration at half of the fitted maximal effect; tags describe the fitted curve by direction and shape.

Sequence of UniProt P10636 (P10636 whole entry, looked up): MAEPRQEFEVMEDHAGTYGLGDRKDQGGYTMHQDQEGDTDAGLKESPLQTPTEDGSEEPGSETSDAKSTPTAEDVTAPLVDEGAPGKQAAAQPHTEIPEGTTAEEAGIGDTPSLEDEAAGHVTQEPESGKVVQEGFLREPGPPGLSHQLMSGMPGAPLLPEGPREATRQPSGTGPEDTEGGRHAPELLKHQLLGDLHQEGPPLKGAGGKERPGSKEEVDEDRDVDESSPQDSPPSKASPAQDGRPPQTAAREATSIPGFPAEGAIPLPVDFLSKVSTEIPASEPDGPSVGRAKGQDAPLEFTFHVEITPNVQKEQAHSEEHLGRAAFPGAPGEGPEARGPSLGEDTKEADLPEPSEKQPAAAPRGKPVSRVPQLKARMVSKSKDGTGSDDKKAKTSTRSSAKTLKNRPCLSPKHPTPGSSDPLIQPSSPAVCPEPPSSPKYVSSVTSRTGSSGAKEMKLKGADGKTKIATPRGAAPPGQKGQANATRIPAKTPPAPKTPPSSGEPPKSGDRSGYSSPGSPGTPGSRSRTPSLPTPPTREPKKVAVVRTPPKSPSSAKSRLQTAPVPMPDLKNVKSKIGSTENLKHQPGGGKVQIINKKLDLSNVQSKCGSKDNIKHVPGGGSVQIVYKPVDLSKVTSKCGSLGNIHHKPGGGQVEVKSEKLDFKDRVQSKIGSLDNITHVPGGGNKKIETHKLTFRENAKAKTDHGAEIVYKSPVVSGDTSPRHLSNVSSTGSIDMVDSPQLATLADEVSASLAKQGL

SMILES	Potency
O=C(O)CNc1nc(Cl)ccc1[N+](=O)[O-]	inconclusive: 22.4 µM [inhibitor, partial curve]
CCOC(=O)CSc1nc2cc(OCC)ccc2cc1C#N	active: 15.8 µM
COc1ccccc1N1CCN(CC2CN3C(=O)N(C)c4ccccc4C3=N2)CC1 (stereo not drawn)	inactive
CCOc1nc(-c2ccc(C)cc2)ccc1-c1noc(-c2cccnc2)n1	inactive
CCCOc1cccc(C2c3c(oc4cc(C)c(C)cc4c3=O)C(=O)N2CCCN2CCOCC2)c1 (stereo not drawn)	inconclusive: 39.8 µM [inhibitor, single point]
Cc1ccc(NC(=O)CN2C(=O)/C(=C3\SC(=S)N(C4CCS(=O)(=O)C4)C3=O)c3ccccc32)cc1 (stereo not drawn)	inactive
O=C(CN1CCN(c2ccccc2)CC1)Nc1ccc(OCc2ccccc2)cc1	inconclusive: 17.8 µM [inhibitor, partial curve]
COc1ccc(NC(=O)c2[nH]nc3c2CSc2ccccc2-3)c(OC)c1	inactive
COc1ccccc1C(=O)/C=C/c1ccc(N2CCCCC2)c([N+](=O)[O-])c1	active: 3.98 µM
O=c1cc(-c2cccc(O)c2)oc2c(O)c(O)ccc12	inconclusive: 7.94 µM [inhibitor, partial curve]
O=c1cc(N2CCc3ccccc32)[nH]c(=O)n1-c1ccccc1Cl	inconclusive: 35.5 µM [inhibitor, single point]
Cc1ccc2oc(=O)c3cc(C(=O)Nc4cccc(C#N)c4)sc3c2c1	inactive
Cc1ccc(-n2nc3c(N4CCC(C(=O)NCCC(C)C)CC4)nnc(C)c3c2C)cc1	inactive
Cc1ccc(-c2nnn(CC(=O)N3CCN(c4ccccc4)CC3)n2)o1	inactive
Cc1cccc(N2CCN(C(=O)c3ccc(CNc4c(N5CCC(C)CC5)c(=O)c4=O)cc3)CC2C)c1 (stereo not drawn)	inconclusive: 20 µM [inhibitor, partial curve, poor fit]
Cc1cc(C)n2c(Nc3cccc(C(F)(F)F)c3)c(-c3ccsc3)nc2n1	inactive
COc1ccc(-c2csc(-c3c(N)c(C(=O)c4ccccc4)n4ccccc34)n2)cc1	inconclusive: 3.55 µM [inhibitor, full curve]
NNC(=O)c1ccc(COc2ccccc2)cc1	inconclusive: 3.16 µM [inhibitor, full curve]
CC1=NN(c2ccccc2)C(=O)/C1=C/N(C)C	inactive
CCN(CCCNC(=O)c1[nH]c(C)c(C(C)=O)c1C)c1cccc(C)c1	inconclusive: 3.16 µM [inhibitor, full curve]
Cc1cccc(NC2=C(NC(=O)c3ccccc3)C(=O)c3ccccc3C2=O)c1	inconclusive: 14.1 µM [inhibitor, partial curve]
COc1ccc(Cl)cc1NC(=O)CCCS(=O)(=O)c1nc(-c2ccc(OC)c(OC)c2)cc(C(F)(F)F)n1	inactive
Clc1cc(NCc2cccs2)ccc1N1CCOCC1	inconclusive: 28.2 µM [inhibitor, partial curve]
CN(C)S(=O)(=O)c1cccc(C(=O)Nc2cc(Cl)cc(Cl)c2)c1	inactive
COc1ccc(CCNC(=O)CSc2nnc3ccc(-c4cccnc4)nn23)cc1	inactive

SMILES	Potency
CCn1cc2nc(SCc3cccc(F)c3)n(CCc3ccccc3)c(=O)c2n1	inconclusive: 10 µM [inhibitor, partial curve]
CCOCCn1c(SCc2ccccc2)nc2c1c(=O)[nH]c(=O)n2C	inactive
COc1ccccc1-n1c(SCC(=O)N2CCCC2)nc2cccnc21	inactive
CC(=O)n1cc(/C=N/NC(=O)c2sc(C)nc2C)c2ccccc21	inconclusive: 31.6 µM [inhibitor, single point]
CCOC(=O)c1c(C)n(-c2ccccc2)c2ccc(OC(=O)c3cc(OC)cc(OC)c3)cc12	inactive
Cc1ccc(CSCc2ccc(C(=O)NC3CCCC3)o2)cc1	inconclusive: 31.6 µM [inhibitor, partial curve]
CCn1c(SCC(=O)Nc2ccc3c(c2)OCCO3)nnc1-c1c[nH]c2ccccc12	inconclusive: 31.6 µM [inhibitor, single point]
CCc1cc2c3c(c(=O)oc2cc1OC)CCCC3	inconclusive: 39.8 µM [inhibitor, single point]
Cc1cccc(C(=O)NNC(=O)c2ccc(-c3ccccc3)cc2)c1	inconclusive: 1.58 µM [inhibitor, full curve, poor fit]
CCOc1ccc(CC(=O)C2C(=O)CCCC2=O)cc1OCC	inconclusive: 25.1 µM [inhibitor, single point]
COc1ccc(-c2noc(CN(C)S(=O)(=O)c3ccc(Cl)cc3)n2)cc1OC	inactive
Cc1ccc(Nc2nc(-c3c(C)nc4ccccn34)cs2)cc1	active: 11.2 µM
CCCOc1ccc(CN(CCC#N)C(=S)NC(=O)c2ccccc2)cc1	inactive
Cc1cccc(CN2C(=O)c3ccccc3Sc3ccc(C(=O)NCc4cccs4)cc32)c1	inactive
COc1ccc(C)cc1NC(=O)CCS(=O)(=O)c1ccc2c(c1)CCN2C(C)=O	inactive
CCOC(=O)N1CCc2c(sc3c2c(=O)n(-c2ccc(F)cc2)c(=O)n3CC(=O)c2ccccc2)C1	inactive
COc1nc(-c2ccncc2)nc2ccccc12	inconclusive: 25.1 µM [inhibitor, partial curve]
C=CCOc1ccc2c(c1)C(=NO)c1cc(OCC=C)ccc1-2	active: 7.94 µM
Cc1[nH]c2ccccc2c1/C=C/c1nc2ccccc2c(=O)n1-c1cccc([N+](=O)[O-])c1	inconclusive: 14.1 µM [inhibitor, partial curve, poor fit]
COc1ccc(/C=C/C(=O)c2cc(F)ccc2OC(=O)c2ccc(OC)c(OC)c2)cc1OC	inactive
N#CC1(C#N)C(c2ccccc2)OC23CCCCCC2C1(C#N)C(=N)O3 (stereo not drawn)	inconclusive: 11.2 µM [inhibitor, partial curve]
COc1ccc2[nH]cc(CCn3ccc(O)c(C/C=C/c4ccccc4)c3=O)c2c1	inconclusive: 6.31 µM [inhibitor, partial curve]
COc1ccc(-c2cc(C(=O)N3CCCc4ccccc43)no2)cc1	inconclusive: 20 µM [inhibitor, partial curve]
Brc1ccc(-n2cc(-c3ccccc3)c3c(NN4CCOCC4)ncnc32)cc1	inconclusive: 25.1 µM [inhibitor, single point]
O=C(CSc1ncn[nH]1)Nc1c(F)cc(F)cc1Br	inactive

SMILES	Potency
Cn1c(=O)n(C)c2cc(NS(=O)(=O)c3ccc(C(C)(C)C)cc3)c(NCc3ccccc3)cc21	inconclusive: 25.1 µM [inhibitor, partial curve]
C[C@H](NC(=O)c1[nH]cnc1C(=O)Nc1ccc(Cl)cc1)C(=O)OC(C)(C)C	inactive
Cc1cccc(C(=O)Nc2nnc(S(=O)(=O)N3CCCc4ccccc43)s2)c1	inconclusive: 4.47 µM [inhibitor, partial curve]
Cc1ccc(NC(=O)Cn2cc(C(=O)C3CCCCC3)c3ccccc32)c(C)c1	inconclusive: 39.8 µM [inhibitor, single point]
CCOc1ccc(C(=O)Nc2ccc3oc(-c4ccncc4)nc3c2)cc1	inconclusive: 0.708 µM [inhibitor, full curve]
CCS(=O)(=O)N1CCc2cc(C(=O)Nc3cc(OC)c(Cl)cc3OC)ccc21	inactive
O=S1(=O)CCN(Cc2ccc(Cl)c(Cl)c2)CC1	inactive
Cc1ccc(Nc2nc(C)c(NC(=O)c3ccc(C)cc3)c(Nc3ccc(C)cc3)n2)cc1	inactive
CC(=O)c1c(N=CN(C)C)nc(C)nc1-c1ccccc1	inactive
CCc1c(C(C)S(=O)(=O)c2ccccc2)[nH]c(=O)n1CC (stereo not drawn)	inconclusive: 20 µM [inhibitor, partial curve]
Cn1c2ccccc2c(=O)c2c(=O)n(Cc3ccco3)c(-c3ccc(F)cc3)nc21	inconclusive: 20 µM [inhibitor, partial curve]
CCOC(=O)N1CCC(NC(=S)Nc2ccc3nc(N4CCN(C)CC4)cc(C)c3c2)CC1	inconclusive: 20 µM [inhibitor, single point]
O=c1cc(-c2ccc([N+](=O)[O-])cc2)nc2cc(-c3ccc(F)cc3)[nH]n12	active: 10 µM
COc1ccc(/C=C\C(=O)Nc2ccccc2C(=O)O)cc1OC	inactive
Cc1cccc(N2CCN(C(=O)CSCc3c(C)noc3C)CC2)c1C	inconclusive: 20 µM [inhibitor, partial curve, poor fit]
O=C(N/N=C/c1ccc(O)c(O)c1)C1c2ccccc2Oc2ccccc21	inconclusive: 28.2 µM [inhibitor, single point]
CCC(c1nnnn1Cc1ccco1)N(Cc1cc2cc(OC)ccc2[nH]c1=O)C1CCCCC1 (stereo not drawn)	inconclusive: 31.6 µM [inhibitor, partial curve]
COc1ccc(C(=O)COC(=O)CCC(=O)c2cccs2)cc1	inconclusive: 17.8 µM [inhibitor, partial curve]
Cc1ccc([N+](=O)[O-])c(OCCN2CCCCCC2)c1	inactive
CCn1c(=O)cc(SCC(=O)N2CCN(c3ccccc3OC)CC2)c2ccccc21	inconclusive: 6.31 µM [inhibitor, full curve]
CCOc1ccc(S(=O)(=O)N2CCN(C(=S)NC3CC3)CC2)cc1	inactive
CCOC(=O)C(=CNNc1cccc(Cl)c1)C(=O)OCC	inconclusive: 28.2 µM [inhibitor, partial curve]
CCCn1c(SCC(=O)c2cc(C)c(C)cc2C)n[nH]c1=O	inconclusive: 12.6 µM [inhibitor, partial curve]
